The values that follow come from PubChem BioAssay (NCI).

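How tested: cells in 96-well plates exposed to compound for 48 hours at five concentrations. At the GI50, growth is halved.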 The source holds more than one record for some entries. The list is limited to them. An entry can have further records. For part of these data: Results that share an entry repeat one measurement across runs, samples, wells, individuals or studies. Marks in square brackets tell the records apart. Letters hold for one entry only.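 Definition used: TGI = concentration required for complete inhibition of growth.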 For part of these data: Records of one sample usually come from different ranges of test concentrations, which the source does not state; a value can be the end of its range.

Test systems include SK-MEL-2 melanoma; EKVX NSCLC; IGROV1 ovarian; UO-31 renal; HOP-92 NSCLC; KM20L2 colon; MALME-3M melanoma; SK-MEL-28 melanoma; UACC-257 melanoma; 786-0 renal; SF-539 CNS; NCI-H23 lung; CCRF-CEM leukemia; HOP-62 NSCLC; SF-295 CNS; OVCAR-4 ovarian; A498 renal; LOX IMVI melanoma; SNB-78 CNS; XF 498 CNS; U251 CNS; HT29 colon; SK-OV-3 ovarian; OVCAR-3 ovarian; SK-MEL-5 melanoma; HOP-18 NSCLC; COLO 205 colon; MOLT-4 leukemia; SF-268 CNS; DMS 114 small cell lung; HL-60(TB) leukemia; HCT-15 colon; SNB-19 CNS.

Common to all, as to test: NCI anticancer screen, dose series, 48 h

As for `CC(C)(C)NC(=O)[C@H]1CC[C@H]2[C@@H]3CC[C@H]4NC(=O)C=C[C@]4(C)[C@H]3CC[C@]12C`, the GI50 with SK-MEL-2 melanoma is > 100 µM [sample A, 1 test] and 8.39 µM [sample B, 1 test].
For the molecule `Nc1cc(C(F)(F)F)c(-c2cc(N3CCOCC3)nc(N3CCOCC3)n2)cn1`, the TGI in the test with EKVX NSCLC is 5.98 µM [sample A, mean of 2 tests] and > 82.8 µM [sample B, mean of 2 tests]; in the test with IGROV1 ovarian, 1.07 µM [sample A, mean of 2 tests] and > 100 µM [sample B, mean of 2 tests]; in the test with UO-31 renal, 3.08 µM [sample A, mean of 2 tests] and > 100 µM [sample B, mean of 2 tests].
Consider `CC(=O)OC(C)(C)/C=C/C(=O)[C@](C)(O)[C@H]1[C@H](O)C[C@@]2(C)[C@@H]3CC=C4[C@@H](C=C(O)C(=O)C4(C)C)[C@]3(C)C(=O)C[C@]12C`, for which the TGI with HOP-92 NSCLC is 109, 236, 37.9, 47.1 nM; with KM20L2 colon, 487 nM, 4.43 µM, 426 nM, 2.52 µM; in the test with MALME-3M melanoma it was 261 nM, 1.1 µM, 582 nM, 221 nM; in the test with SK-MEL-28 melanoma, 101, 318, 90.3, 377 nM; in the test on UACC-257 melanoma it was 607, 450, 988, 87.9 nM; in the test on 786-0 renal, 375 nM and 27.3 nM. The TGI with EKVX NSCLC is 338 nM, 2.48 µM, 573 nM, 1.02 µM; in the test on SF-539 CNS it was 52.5, 181, 36.1, 83.9 nM; in the test on NCI-H23 lung, 861 nM, 2.93 µM, 804 nM, 1.57 µM; with CCRF-CEM leukemia, 478 nM, 578 nM, 494 nM, 5.29 µM; in the test on HOP-62 NSCLC, 290, 475, 116, 84.9 nM; in the test with SF-295 CNS, 241, 162, 75, 46.8 nM. Further, the TGI in the test on IGROV1 ovarian is 107, 187, 177, 50.4 nM; in the test with OVCAR-4 ovarian it was 308 nM, 199 nM, 1.06 µM, 53.7 nM; with A498 renal, 50.3, 109, 25.2, 43.2 nM; with LOX IMVI melanoma, 52.4 nM, 253 nM, 30.6 nM, 1.14 µM; in the test on UO-31 renal, 31.7 nM [mean of 4 tests] and 97.1 nM, 338 nM, 49.4 nM [mean of 5 tests]; in the test on SNB-78 CNS it was 795 nM, 2.9 µM, 231 nM, 575 nM. Also, the TGI with XF 498 CNS is 60.5 nM, 70.7 nM, < 23.5 nM, 54.2 nM; in the test on U251 CNS, 166, 300, 146, 53.6 nM; in the test on HT29 colon, 823 nM, 4.11 µM, 3.02 µM, 703 nM; in the test with SK-OV-3 ovarian, 774 nM, 268 nM, 976 nM, 3.62 µM; with OVCAR-3 ovarian it was 735, 641, 216, 91.7 nM; in the test on SK-MEL-5 melanoma, 388, 375, 182, 45.7 nM. Moreover, the TGI was 101, 329, 127, 314 nM with HOP-18 NSCLC; 391 nM, 4.14 µM, 3.15 µM, 1.08 µM in the test with COLO 205 colon; 3.93 µM, 11.9 µM, 996 nM in the test on MOLT-4 leukemia; 94.5, 359, 70.1, 87.5 nM with SF-268 CNS; 567 nM, 1.47 µM, 2.02 µM, 1.53 µM in the test with DMS 114 small cell lung; 177, 122, 758, 398 nM in the test on HL-60(TB) leukemia. In addition, the TGI in the test with HCT-15 colon is recorded as 879 nM, 2.19 µM, 1.59 µM, 4.51 µM; with SNB-19 CNS, 196, 450, 191, 649 nM.
